Measurements published in patent US20190010237A1 (AbbVie / Abbott, published 2019).

Target: T1, Human PRLR expressed on HEK-293 cells (human, UniProt P16471 25-622)
T1 sequence: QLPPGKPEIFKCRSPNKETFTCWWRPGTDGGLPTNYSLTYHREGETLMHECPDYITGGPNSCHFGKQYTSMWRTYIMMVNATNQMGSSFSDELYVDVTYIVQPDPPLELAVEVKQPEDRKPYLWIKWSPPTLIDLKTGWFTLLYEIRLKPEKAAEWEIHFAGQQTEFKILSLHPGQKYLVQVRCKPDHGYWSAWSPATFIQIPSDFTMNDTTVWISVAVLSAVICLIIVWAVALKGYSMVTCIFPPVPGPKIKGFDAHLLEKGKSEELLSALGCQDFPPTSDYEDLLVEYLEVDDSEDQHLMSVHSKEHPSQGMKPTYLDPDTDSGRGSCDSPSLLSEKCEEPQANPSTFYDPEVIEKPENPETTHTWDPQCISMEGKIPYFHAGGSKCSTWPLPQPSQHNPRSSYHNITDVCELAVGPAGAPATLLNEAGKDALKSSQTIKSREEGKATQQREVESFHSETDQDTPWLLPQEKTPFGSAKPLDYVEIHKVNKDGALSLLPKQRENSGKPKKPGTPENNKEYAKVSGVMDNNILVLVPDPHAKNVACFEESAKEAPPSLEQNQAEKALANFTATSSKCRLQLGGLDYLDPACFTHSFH
Experiment: cell-based or functional assay

6-Day Proliferation Assay IC50 (nM), HEK293/Human PRLR: 0.15 nM
B1: h16f-MMAE antibody drug conjugate (other)
heavy: EVQLVQSGAEVKKPGSSVKVSCKASGYTFTTYWMHWVRQAPGQGLEWIGEIDPSDSYSNYNQKFKDRATLTVDKSTSTAYMELSSLRSEDTAVYYCARNGGLGPAWFSYWGQGTLVTVSS[human IgG1 constant region omitted]
light: DIQMTQSPSSVSASVGDRVTITCKASQYVGTAVAWYQQKPGKSPKLLIYSASNRYTGVPSRFSDSGSGTDFTLTISSLQPEDFATYFCQQYSSYPWTFGGGTKVEIKRTVAAPSVFIFPPSDEQLKSGTASVVCLLNNFYPREAKVQWKVDNALQSGNSQESVTEQDSKDSTYSLSSTLTLSKADYEKHKVYACEVTHQGLSSPVTKSFNRGEC
modifications: MMAE (auristatin) drug-linker conjugated; sites not stated
